The other results are listed elsewhere or left out. The energies were worked out here from pooled read counts, against the library average; single values are noisy.
What follows are sequences tested against T1, Pho4 (S. cerevisiae) (UniProt P07270) (assay: relative binding free energy (BET-seq); higher = weaker binding). Details: reference: library average.
T1 sequence: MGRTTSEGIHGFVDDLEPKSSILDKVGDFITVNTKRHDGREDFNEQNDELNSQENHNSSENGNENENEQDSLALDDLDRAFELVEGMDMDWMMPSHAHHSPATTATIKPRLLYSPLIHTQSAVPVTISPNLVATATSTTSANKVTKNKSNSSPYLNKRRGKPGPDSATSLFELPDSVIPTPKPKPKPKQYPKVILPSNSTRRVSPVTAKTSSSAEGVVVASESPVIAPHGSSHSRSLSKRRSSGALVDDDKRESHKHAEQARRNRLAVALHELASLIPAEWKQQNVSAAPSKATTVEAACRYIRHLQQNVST

Sequence | relative binding free energy [kcal/mol]
ATTTGCACGTGGGGCT | -0.21
GGTTCCACGTGGTTGG | 0.08
ACGAGCACGTGTAGGG | -0.16
TGTAACACGTGTTTGC | -0.01
TGTTGCACGTGTAGTG | 0.09
ATTTACACGTGGTAGC | 0.22
GTTGACACGTGATGGA | 0.19
GTAATCACGTGTTATA | 0.18
GATGGCACGTGTTCGT | -0.03
TTTGGCACGTGGAATG | -0.02
GTAGACACGTGTGGCG | 0.1
GTTTGCACGTGATGAC | 0.4
TTAACCACGTGTTAGG | -0.11
TGGAACACGTGAAGAG | 0.28
GGGTGCACGTGAGCCG | 0.08
TTAGGCACGTGTGTGT | -0.09
TGGGTCACGTGTTAGG | 0.1
GAGGTCACGTGTGATG | 0.24
TTTGACACGTGTAAAT | 0.17
CTTGACACGTGTGGTT | 0.16
GCTGGCACGTGAAGGA | 0.24
TCGTTCACGTGGAGGA | 0.22
TCTTGCACGTGGGGAT | -0.01
AGGATCACGTGTTAAT | 0.24
AATGTCACGTGGATAG | 0.04

Sequence | relative binding free energy [kcal/mol]
GGTTGCACGTGTGTCC | 0.09
GGTCTCACGTGATGGA | 0.34
CAGGGCACGTGGAAGG | 0.04
TACGGCACGTGATTTG | 0.03
TTCATCACGTGGTTGC | 0.17
TGGCACACGTGTGAAT | 0.27
TGTACCACGTGATGTT | -0.03
GTAGTCACGTGGGTTA | 0
TATGTCACGTGGTTAA | 0.17
GACGGCACGTGTGTGC | 0.02
TGTTCCACGTGTCGGT | 0
ATGAACACGTGTTGTA | -0.01
GGGGTCACGTGACGGC | 0.35
GAGCTCACGTGGATTG | 0.33
TTGGCCACGTGTGTGA | -0.05
TCGGTCACGTGCGGGT | 0.05
TTAGTCACGTGGTAAG | 0.19
GGTGTCACGTGGCAAG | -0.05
GGAAGCACGTGAGGTA | 0.15
TGTCTCACGTGGGTCT | 0.09
TTTAGCACGTGCATGA | -0.01
TTGGTCACGTGTTGTA | 0.12
TTTGTCACGTGTTTCA | 0.13
GTATCCACGTGGCTGT | 0.06
TGGCACACGTGGTCGT | -0.1

Sequence | relative binding free energy [kcal/mol]
AGGAACACGTGGGGGA | -0.14
GTTGTCACGTGGATGA | 0.12
TGGGACACGTGGCTAG | -0.18
GGATACACGTGGGGTT | 0.02
AAGGGCACGTGAGAGC | 0.08
ACAGGCACGTGTGTGT | -0.18
TTATACACGTGTATTG | 0.11
TGTGTCACGTGCGCGT | -0.15
TTAAACACGTGGAGGG | -0.01
TATCTCACGTGGGTGG | 0.13
CGTATCACGTGATAGG | 0.18
TGTAGCACGTGGTCAT | -0.09
ATTGGCACGTGAGCTA | -0.05
CATTACACGTGTAAGG | 0.25
ATCGTCACGTGAGGGC | 0.1
CGTATCACGTGCTAGG | 0.15
TTGGGCACGTGGCGAT | -0.11
TGTACCACGTGTGGGT | -0.09
TCAGTCACGTGGGTCG | -0.18
AATTGCACGTGATGCT | 0.23
TTCATCACGTGTAGTC | 0.24
TAATTCACGTGCTTGT | 0.24
GTAGGCACGTGTGCGG | -0.1
GTGGTCACGTGAGATG | 0.42
CGGGGCACGTGATATT | -0.03

Sequence | relative binding free energy [kcal/mol]
CTGGGCACGTGCGGGT | -0.09
GTGGGCACGTGAATCG | 0.21
TTATTCACGTGATGAA | 0.3
TTGGGCACGTGTGTAT | -0.01
AGGTGCACGTGGAACT | 0.06
GTTGTCACGTGGGCAG | 0.04
TGAGGCACGTGCGTGG | -0.12
TGTTTCACGTGGTCTG | 0.28
TGGTACACGTGAGGCT | 0.39
ATGTACACGTGGCGAG | -0.11
CTGGGCACGTGGAATG | -0.12
ATAGTCACGTGTTTAG | 0.11
AGTGGCACGTGTTGCA | -0.26
TTTTTCACGTGCGGGC | 0.23
GCTGGCACGTGGGCGA | -0.27
TGTGTCACGTGCGTCT | 0.08
ATGTGCACGTGTGGCG | -0.02
AACGGCACGTGTTGGG | -0.1
TGAAGCACGTGGTTGG | -0.14
GATCTCACGTGAAGGG | 0.31
GGCGACACGTGAAGGG | 0.32
GTGTACACGTGTCGCG | 0.1
CAATACACGTGGGTTT | 0.03
GTTAACACGTGTGAGG | 0.11
GTGAGCACGTGGTGCT | -0.1

Sequence | relative binding free energy [kcal/mol]
AAGGACACGTGGTGTG | -0.09
GGACTCACGTGTCGGG | 0.31
TTGTTCACGTGAAGTC | 0.4
TGCCTCACGTGGAGGG | 0.16
GGATTCACGTGATAGT | 0.35
TCAAGCACGTGGTCGG | -0.12
GGCTTCACGTGTGTGC | 0.25
TGACTCACGTGTTGGT | 0.18
GCGGACACGTGTTTGT | -0.12
GTGTGCACGTGGCGTA | -0.13
TGGGTCACGTGAGAGT | 0.25
TATGACACGTGGTCGG | -0.13
GTCTTCACGTGTAATG | 0.25
TTGGGCACGTGGTGGG | -0.07
GAGAGCACGTGTGGAG | -0.26
ATTATCACGTGTCGGC | 0.3
GGGCACACGTGGGAGT | 0.04
AGTTTCACGTGCTAAG | 0.25
TTTAACACGTGTAGTT | 0.05
TACTGCACGTGGATAG | 0.07
GTGGGCACGTGGTGTT | -0.15
TGGAGCACGTGCATGG | 0.04
TGAGTCACGTGAGTAG | 0.16
ATGGGCACGTGAGGCT | 0.15
GTATTCACGTGTGGCA | 0.23

Sequence | relative binding free energy [kcal/mol]
CTGTACACGTGGGGGA | -0.11
ATTCTCACGTGGTTGT | 0.1
GGTTACACGTGAGAAG | 0.34
CGCGGCACGTGGGTGA | -0.24
GGTAGCACGTGTATGT | -0.01
TTACTCACGTGGGGAA | 0.1
TCGGTCACGTGGTTGA | 0.17
GGTGCCACGTGCGGGA | -0.15
ACTGGCACGTGAAGTT | 0.23
GTGGTCACGTGGACAA | 0.18
TGTGTCACGTGAAAGA | 0.41
CTTTGCACGTGTAATG | 0.23
TTGTTCACGTGTGTGG | 0.3
TCGGCCACGTGGTGGA | -0.1
AATGACACGTGATGTT | 0.15
TCTTTCACGTGCTTTG | 0.2
AGGCGCACGTGTGAGT | -0.03
TTAAGCACGTGGTTCG | -0.21
TTACGCACGTGTGAGT | -0.07
GGCATCACGTGGAGGG | 0.16
ATCGGCACGTGGGATG | -0.13

Source: the BET-seq Pho4 binding data (Le et al. 2018)
